Inconclusive means that the source gave no clear call. Such entries were picked first, then a sample of the others. For some assays here: Where the call is inconclusive, the potency comes from a doubtful curve fit. For some assays here: A note “side channel” means that the fit belongs to a control or component signal, not to the main read-out. Active and inactive are the calls of the source. Unless noted, the call rests on the fitted dose curve; in most records, active means well fitted curve in either direction with a large enough effect (not every such curve was filed as active); inconclusive means small, poorly fitted or top-dose-only effect, or another doubt; inactive means flat fitted curve, though single readings scatter.
Columns and labels:
[1] = AP1 Signaling Pathway (AID 357); settings: ME-180 AP-1-bla reporter, EGF-induced, beta-lactamase ratio, 5 h; at 17.2 µM (top of the series) unless noted;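 further: ME-180 reporter cells stimulated with EGF at its EC50 level; top concentration of the series differs between compounds; on the % scale 0 is the no-effect control and ±100 the full control effect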
In short: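 Titration-series screen for positive or negative modulators of EC50 EGF-induced signaling in ME-180 cells carrying an AP-1-driven beta-lactamase reporter. After 5 hours at 37 degrees Celsius, CCF4 460nm/530nm emission ratio gave %Activity; AC50 values derived.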

[2] = NFAT Signaling Pathway (AID 444); settings: Jurkat NFAT-bla M1, carbachol, beta-lactamase ratio, 5 h; at 17.2 µM (top of the series) unless noted;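 further: carbachol stimulus at about its EC50 of 1 µM final; on the % scale 0 is the no-effect control and ±100 the full control effect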
In short: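 Jurkat cells carrying an NFAT-driven β-lactamase reporter and co-transfected muscarinic M1 receptor were treated with compound plus carbachol (1 uM final, an EC50 level) for 5 h at 37 °C. CCF4 loading followed for 1 h at RT; 460/530 nm ratio gave %activity.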

[3] = Stat Signaling Pathway (AID 446); settings: ME-180 SIE beta-lactamase reporter, IL-6 stimulated, 5 h; at 7.69 µM (top of the series) unless noted;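 further: ME-180 cervical cancer cells given 40 pM IL-6 alongside compound; SIE-controlled beta-lactamase reporter measured as 460/530 nm FRET emission ratio; top concentration of the series differs between compounds; on the % scale 0 is the no-effect control and ±100 the full control effect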
In short: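 Emission at 460 and 530 nm (excitation 405 nm) reports SIE-controlled beta-lactamase in ME-180 cells. Cells received compound with 40 pM IL-6 for 5 hrs at 37 C; data scaled between 300 pM IL-6 and 125 nM JAK-inhibitor controls.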

[4] = qHTS Assay for Identification of Small Molecule Antagonists for NFkB Signaling Pathway (AID 895; active means well fitted inhibition curve with a large enough effect in the signal ratio, with a control signal flat, not every such curve was filed as active; inconclusive means small, poorly fitted or top-dose-only effect, or effect the other way, or a change in a side signal; the % refers to the signal ratio; further: potency means the concentration at half of the fitted maximal effect); settings: NFkB beta-lactamase reporter cells, FRET ratio 460/530, stimulated with 10 pM TNF alpha; activity change, negative = inhibition: at 38.3 µM (top of the series)
In short: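 NFkB-bla ME-180 cervical carcinoma cells with beta-lactamase reporter under NFkB response element; compounds added, then TNF alpha at 10 pM final (EC50), 5 h at 37 C. LiveBLAzer substrate 2 h, room temperature; emission 460/530 nm at 405 nm excitation.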

[5] = qHTS Assay for Identification of Small Molecule Agonists for Hypoxia Response Element Signaling Pathway (AID 914; active means well fitted activation curve with a large enough effect in the signal ratio, with a control signal flat, not every such curve was filed as active; inconclusive means small, poorly fitted or top-dose-only effect, or effect the other way, or a change in a side signal; the % refers to the signal ratio; further: potency means the concentration at half of the fitted maximal effect; on activation: top concentration of the series differs between compounds; % of control where 0% means no effect); settings: ME-180 (cervical carcinoma) HRE-bla reporter, beta-lactamase ratio, CoCl2, 17 h; activation: stronger effect = higher value
In short: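 HRE-bla ME-180 assay for agonist-like enhancement of an EC50 CoCl2 stimulus: 17 h at 37 degrees Celsius, CCF4 for 2.5 h, ratiometric 460/530 nm signal converted to %Activity and fitted to AC50.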

[6] = qHTS Assay for Identification of Small Molecule Agonists for Thrombopoietin (TPO) Signaling Pathway (AID 917; active means well fitted curve in the direction sought with a large enough effect; inconclusive means small, poorly fitted or top-dose-only effect, or another doubt; inactive means no such curve, though single readings can be large; an effect the other way counts as inactive or inconclusive; further: potency means the concentration at half of the fitted maximal effect); settings: TPO signaling pathway reporter cells, agonist qHTS, stimulated with TPO at its EC50; activity, positive = activation: at 38.5 µM (top of the series)
In short: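 Quantitative HTS for pathway activators: compounds were pin-transferred onto IL-3-starved Ba/F3 cells expressing human TPO receptor, TPO was added at its EC50 (26 pM final), and after 24 hrs at 37 C reporter luciferase was measured.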

[7] = molecular target: Muscarinic acetylcholine receptor M1 (Rattus norvegicus) (UniProt P08482); test: qHTS Assay for Antagonists of Acetylcholine Muscarinic M1 Receptor: Kinetic Measurement of Intracellular Calcium Response (AID 943; active means well fitted curve in the direction sought with a large enough effect; inconclusive means small, poorly fitted or top-dose-only effect, or another doubt; inactive means no such curve, though single readings can be large; an effect the other way counts as inactive or inconclusive; further: potency means the concentration at half of the fitted maximal effect; nearly all actives have a fitted effect of over 75% in size)
In short: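 Antagonism measured as reduction of carbachol-evoked (EC80, 100 nM final) calcium flux in rat M1-CHO cells after 10 min compound exposure. Fluo-4 signal read kinetically; ratio of maximal to basal fluorescence.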

[8] = molecular target: Muscarinic acetylcholine receptor M1 (Rattus norvegicus) (UniProt P08482); test: qHTS Assay for Antagonists of Acetylcholine Muscarinic M1 Receptor: Measurement of IP-One Response (AID 944; active means well fitted curve in the direction sought with a large enough effect; inconclusive means small, poorly fitted or top-dose-only effect, or another doubt; inactive means no such curve, though single readings can be large; an effect the other way counts as inactive or inconclusive; further: potency means the concentration at half of the fitted maximal effect; nearly all actives have a fitted effect of over 75% in size)
[9] = molecular target: Cytochrome P450 2C9 (Homo sapiens) (UniProt P11712); test: qHTS Assay for Inhibitors and Substrates of Cytochrome P450 2C9 (AID 883; active means well fitted curve in the direction sought with a large enough effect; inconclusive means small, poorly fitted or top-dose-only effect, or another doubt; inactive means no such curve, though single readings can be large; an effect the other way counts as inactive or inconclusive; further: potency means the concentration at half of the fitted maximal effect; nearly all actives have a fitted effect of over 60% in size); settings: recombinant CYP2C9, luciferin-H luminescence, 60 min; activity change, negative = inhibition: at 57.1 µM (top of the series)
In short: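 CYP2C9 deoxyluciferin hydroxylation, 37C, 60 min with NADPH regeneration; 10nM enzyme, 100uM Luciferin-H (KM). Glo detection reagent stopped reaction; luminescence normalized to sulphaphenazole (57uM) full inhibition.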

[10] = molecular target: Cytochrome P450 2D6 (Homo sapiens) (UniProt P10635); test: qHTS Assay for Inhibitors and Substrates of Cytochrome P450 2D6 (AID 891; active means well fitted curve in the direction sought with a large enough effect; inconclusive means small, poorly fitted or top-dose-only effect, or another doubt; inactive means no such curve, though single readings can be large; an effect the other way counts as inactive or inconclusive;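 further: luciferin methyl ether substrate demethylated by CYP2D6 with NADPH regeneration; potency means the concentration at half of the fitted maximal effect; nearly all actives have a fitted effect of over 60% in size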); settings: recombinant CYP2D6, luciferin-ME EGE luminescence; activity change, negative = inhibition: at 57.1 µM (top of the series)
In short: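 Luminescent read-out of luciferin formed by 5 nM human CYP2D6 demethylating 30 uM Luciferin-ME EGE (Km level) over 60 min at room temperature after NADPH regeneration addition. Data normalized to full inhibition by 1.43 uM quinidine.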
Tags describe the fitted curve by direction and shape or compound fluorescence and quenching.

Sequence of UniProt P08482 (P08482 whole entry, looked up): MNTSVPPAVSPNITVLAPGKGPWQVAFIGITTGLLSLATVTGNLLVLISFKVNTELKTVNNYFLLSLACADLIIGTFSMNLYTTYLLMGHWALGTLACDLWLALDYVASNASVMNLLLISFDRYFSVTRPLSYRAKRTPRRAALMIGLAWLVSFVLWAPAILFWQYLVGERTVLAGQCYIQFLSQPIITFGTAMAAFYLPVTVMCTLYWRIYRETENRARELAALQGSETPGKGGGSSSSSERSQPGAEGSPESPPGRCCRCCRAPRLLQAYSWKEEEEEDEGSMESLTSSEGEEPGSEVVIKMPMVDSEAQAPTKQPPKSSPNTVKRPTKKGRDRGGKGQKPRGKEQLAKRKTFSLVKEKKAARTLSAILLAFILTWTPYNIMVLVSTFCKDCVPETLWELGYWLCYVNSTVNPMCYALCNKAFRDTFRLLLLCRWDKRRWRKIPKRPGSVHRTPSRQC
Sequence of UniProt P10635 (P10635 whole entry, looked up): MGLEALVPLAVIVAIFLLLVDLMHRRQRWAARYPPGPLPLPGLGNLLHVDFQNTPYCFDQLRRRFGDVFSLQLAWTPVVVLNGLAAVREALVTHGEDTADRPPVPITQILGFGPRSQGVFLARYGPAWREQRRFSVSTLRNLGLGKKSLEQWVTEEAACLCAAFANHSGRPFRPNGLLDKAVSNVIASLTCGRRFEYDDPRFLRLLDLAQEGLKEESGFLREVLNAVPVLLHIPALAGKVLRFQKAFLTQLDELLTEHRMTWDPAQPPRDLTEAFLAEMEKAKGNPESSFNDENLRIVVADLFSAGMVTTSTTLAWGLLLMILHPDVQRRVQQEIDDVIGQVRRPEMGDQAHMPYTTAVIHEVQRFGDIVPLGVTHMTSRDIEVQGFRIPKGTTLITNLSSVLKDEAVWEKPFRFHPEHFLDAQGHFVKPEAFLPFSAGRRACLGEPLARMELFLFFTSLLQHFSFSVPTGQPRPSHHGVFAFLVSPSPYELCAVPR
Sequence of UniProt P11712 (P11712 whole entry, looked up): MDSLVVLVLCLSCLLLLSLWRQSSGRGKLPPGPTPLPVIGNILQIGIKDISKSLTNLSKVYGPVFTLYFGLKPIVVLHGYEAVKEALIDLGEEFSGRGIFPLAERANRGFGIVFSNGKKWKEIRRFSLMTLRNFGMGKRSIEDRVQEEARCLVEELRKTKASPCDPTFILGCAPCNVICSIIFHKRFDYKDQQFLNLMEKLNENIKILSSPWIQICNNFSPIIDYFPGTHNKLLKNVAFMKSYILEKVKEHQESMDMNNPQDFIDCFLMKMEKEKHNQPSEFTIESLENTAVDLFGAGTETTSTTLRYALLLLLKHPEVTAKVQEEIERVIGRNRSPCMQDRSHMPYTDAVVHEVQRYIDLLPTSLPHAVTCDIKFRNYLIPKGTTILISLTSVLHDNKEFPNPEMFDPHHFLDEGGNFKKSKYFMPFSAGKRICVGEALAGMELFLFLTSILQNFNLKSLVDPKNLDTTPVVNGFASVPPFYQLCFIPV

For `CCCCCCCCCCCCCCCC(=O)O[C@H](CC(=O)O)C[N+](C)(C)C`, which activity change, negative = inhibition [1] is on record?
Its activity change, negative = inhibition is inconclusive: 38.3% [activator] [at 38 µM].

And the activity change, negative = inhibition [2]?
Its activity change, negative = inhibition is inconclusive: -77.1% [inhibitor] [at 38 µM].

What about the activity, negative = inhibition [3] of the same compound?
The activity, negative = inhibition was inconclusive: -37.9% [inhibitor] [at 38 µM].

What about the Potency [4] of the same compound?
The Potency was inconclusive: 11.2 µM [side channel, falling, single point].

What about the Potency [5] of the same compound?
Its Potency is inconclusive: 25.1 µM [inhibitor, single point].

And the Potency [6]?
The Potency was inconclusive: 12.6 µM [inhibitor, single point].

And the Potency [7]?
The Potency was active: 5.62 µM.

What about the Potency [8] of the same compound?
The Potency was inconclusive: 15.8 µM [inhibitor, partial curve, poor fit].

Which results are given for `CO[C@@H]1/C=C\O[C@@]2(C)Oc3c(C)c(O)c4c(c3C2=O)C(=N[C@H]2CC[C@H](O)O[C@@H]2C)C=C(NC(=O)/C(C)=C\C(=O)[C@@H]2C[C@@H]2[C@@H](O)[C@H](C)[C@@H](O)[C@H](C)[C@H](OC(C)=O)[C@@H]1C)C4=O`?
activity change, negative = inhibition [1]: inactive: 26.3% [at 7.69 µM]; activity change, negative = inhibition [2]: inconclusive: 35.8% [activator] [at 7.69 µM]; activity, negative = inhibition [3]: inactive: -2.6%; Potency [9]: inconclusive: 3.98 µM [inhibitor, single point]; Potency [10]: inconclusive: 3.16 µM [inhibitor, partial curve]

Which activity change, negative = inhibition [1] does the source give for `O=c1c(-c2ccc3c(c2)OCCO3)c(C(F)(F)F)oc2cc(O)cc(O)c12` here?
Its activity change, negative = inhibition is inconclusive: -81.9% [inhibitor].

And the activity change, negative = inhibition [2]?
Its activity change, negative = inhibition is inconclusive: -48.7% [inhibitor].

What about the activity, negative = inhibition [3] of the same compound?
The activity, negative = inhibition was inconclusive: -82.1% [inhibitor] [at 17.2 µM].

What about the activation [5] of the same compound?
Its activation is inconclusive: -68.9%.

Which results are given for `Oc1c(Cl)cc(C(c2cc(Cl)c(O)c(Cl)c2)C(c2cc(Cl)c(O)c(Cl)c2)c2cc(Cl)c(O)c(Cl)c2)cc1Cl`?
activity change, negative = inhibition [1]: inconclusive: 21.2% [inhibitor] [at 7.69 µM]; activity change, negative = inhibition [2]: inconclusive: -134% [inhibitor] [at 7.69 µM]; activity, negative = inhibition [3]: inconclusive: -58.5% [inhibitor]; Potency [5]: inconclusive: 1.58 µM [inhibitor, partial curve]

Which activity change, negative = inhibition [1] does the source give for `COCCn1c(=O)c(-c2ccc(Cl)cc2)nc2cnc(Nc3ccccc3)nc21` here?
The activity change, negative = inhibition was inconclusive: 40.1% [activator] [at 7.69 µM].

What about the activity change, negative = inhibition [2] of the same compound?
Its activity change, negative = inhibition is inconclusive: 41.2% [activator] [at 7.69 µM].

What about the activity, negative = inhibition [3] of the same compound?
The activity, negative = inhibition was inconclusive: 41.1% [activator].

And the Potency [5]?
Its Potency is active: 2.51 µM.

Which activity change, negative = inhibition [1] does the source give for `CCCCCCCCCCCCCCCCOC[C@@H](COCC(F)(F)F)OP(=O)(O)OCO` here?
The activity change, negative = inhibition was inconclusive: 74.5% [activator] [at 38 µM].

And the activity change, negative = inhibition [2]?
Its activity change, negative = inhibition is inconclusive: -51.6% [inhibitor] [at 38 µM].

And the activity, negative = inhibition [3]?
The activity, negative = inhibition was inconclusive: -61.6% [inhibitor] [at 38 µM].

And the Potency [5]?
The Potency was inconclusive: 31.6 µM [cytotoxic, side channel, single point].

With `COC(=O)c1ccccc1NC=C1C(=O)OC2(CCCCC2)OC1=O` as the compound, how does the activity change, negative = inhibition [1] read?
The activity change, negative = inhibition was inconclusive: -39.5% [inhibitor].

What about the activity change, negative = inhibition [2] of the same compound?
The activity change, negative = inhibition was inconclusive: 9.44% [inhibitor].

What about the activity, negative = inhibition [3] of the same compound?
Its activity, negative = inhibition is inactive: 2.6% [at 17.2 µM].

What about the activation [5] of the same compound?
Its activation is inconclusive: -16.1%.

With `COc1cccc(Cn2c(=O)c(-c3cccc(C#N)c3)nc3cnc(N4CCN(C)CC4)nc32)c1` as the compound, how does the activity change, negative = inhibition [1] read?
Its activity change, negative = inhibition is inconclusive: 69.9% [activator] [at 7.69 µM].

What about the activity change, negative = inhibition [2] of the same compound?
Its activity change, negative = inhibition is inconclusive: 37.5% [activator] [at 7.69 µM].

And the activity, negative = inhibition [3]?
Its activity, negative = inhibition is inconclusive: 88.3% [activator].

And the Potency [5]?
Its Potency is active: 3.16 µM.

For `CCC(=O)Oc1oc(-c2ccccc2)nc1C=Nc1ccccc1OC`, which activity change, negative = inhibition [1] is on record?
The activity change, negative = inhibition was inconclusive: 52.2% [activator].

And the activity change, negative = inhibition [2]?
Its activity change, negative = inhibition is inconclusive: -98% [inhibitor].

And the activity, negative = inhibition [3]?
The activity, negative = inhibition was inconclusive: -55.3% [inhibitor] [at 17.2 µM].

What about the Potency [5] of the same compound?
The Potency was inconclusive: 7.94 µM [inhibitor, partial curve].

With `COc1ccc(-c2nc3cnc(N4CCNCC4)nc3n(Cc3ccc(F)cc3)c2=O)cc1` as the compound, how does the activity change, negative = inhibition [1] read?
Its activity change, negative = inhibition is active: 83.5% [activator] [at 7.69 µM].

And the activity change, negative = inhibition [2]?
The activity change, negative = inhibition was active: 88% [activator] [at 7.69 µM].

And the activity, negative = inhibition [3]?
Its activity, negative = inhibition is inconclusive: 266% [activator].

What about the Potency [5] of the same compound?
Its Potency is inconclusive: 3.16 µM [fluorescent, side channel, partial curve].

For `CC1(C)Cc2c(C#N)c(NCc3ccco3)nc(-c3ccco3)c2CO1`, which activity change, negative = inhibition [1] is on record?
The activity change, negative = inhibition was inconclusive: 48.1% [activator].

And the activity change, negative = inhibition [2]?
Its activity change, negative = inhibition is inconclusive: 62.5% [activator].

And the activity, negative = inhibition [3]?
Its activity, negative = inhibition is inconclusive: 80.1% [activator] [at 17.2 µM].

What about the Potency [5] of the same compound?
The Potency was active: 2 µM.

What does the source list for `COc1cc(/C=C\C(=O)N2CCC=CC2=O)cc(OC)c1OC`?
activity change, negative = inhibition [1]: inconclusive: -117% [inhibitor]; activity change, negative = inhibition [2]: active: -142%; activity, negative = inhibition [3]: active: -101% [at 17.2 µM]; Potency [5]: inconclusive: 10 µM [cytotoxic, side channel, partial curve]

— PubChem BioAssay (NCATS)
